In PubChem BioAssay AID493208 (National Center for Advancing Translational Sciences (NCATS), 2011):
Among all 44,000 compounds or so, about 340 (0.77%) were called active. Not shown: some 5% with an inconclusive outcome. Calls come from the whole dose curve; as a rule, active = well fitted inhibition curve with a large enough effect; inconclusive = small, poorly fitted or top-dose-only effect; inactive = flat fitted curve, though single readings scatter. The list shows a part of the results.

Assay: Acumen qHTS Assay for Inhibitors of the mTORC1 Signaling Pathway in MEF (Tsc2-/-, p53-/-) Cells: Sytravon;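 note: plate controls were DMSO for no effect and rapamycin for full effect; nearly all actives have a fitted effect of over 50% in size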
Details: phospho-rpS6 immunofluorescence/PI, 24 h; series mostly up to 38.3 µM; activity change, negative = inhibition: at the top concentration
Summary of the method: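 Read-out: phospho-S6 Alexa-488 intensity over PI intensity per well, scored as % active cells using thresholds from rapamycin (7.5 nM) and DMSO controls. Tsc2-/-, p53-/- MEFs exposed to compound for 24 h; PI cell count recorded as viability.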

Activity change, negative = inhibition, inactive:
COC(=O)Cn1c(SCCOc2ccccc2OC)nc2ccccc21 -0.519%
Cc1cc2[nH]c(=O)c(=O)[nH]c2cc1S(=O)(=O)N1CCN(c2cccc(Cl)c2)CC1 -6.09%
Cc1ccc(NC(=O)c2ccc(NC(=O)CCS(=O)(=O)c3cccs3)cc2)cc1F -16.2%
COc1cccc(Cn2cc(C(=O)c3ccc(Cl)cc3)c(=O)c3ccccc32)c1 0.303%
Cc1ccccc1Nc1c(-c2ccc(N3CCOCC3)cc2)nc2ccc(Br)cn12 3.31%
CCOC(=O)C1(C)C=C(Nc2cccc(C(=O)O)c2)C(=O)N1c1ccccc1 (centres undefined) 6.58%
Cc1ccc(CNC(=O)C(=O)NCC(c2ccc3c(c2)OCO3)N2CCOCC2)cc1 (centres undefined) 1.1%
Cc1ccc2c(=O)cc(C(=O)Nc3c(C)n(C)n(-c4ccccc4)c3=O)oc2c1 1.04%
COc1cc(NC(=O)CSc2nc3nc(C)c(Cc4ccccc4Cl)c(C)n3n2)cc(OC)c1 8.6%
Cc1ccc(Nc2ncnc3sc4c(c23)CCC(C)C4)cc1C (centres undefined) -16.5%
CCCOc1ccc(CNC(=O)C(NS(=O)(=O)c2cccs2)C(C)C)cc1 (centres undefined) 0%
COc1cc(Cl)c(C)cc1NC(=O)c1cnc(N2CCCCC2)c2ccccc12 -2.01%
COc1cc2nc(SCc3ccc(C)cc3)n3nc(CCn4nc(C)cc4C)nc3c2cc1OC 0.579%
CC(C)Cn1c(-c2cccc(Br)c2)nc2ccccc21 -0.225%
COC(=O)C(CCSC)Nc1ncnc2onc(-c3ccc(F)cc3)c12 (centres undefined) -13%
Cc1cc(C)cc(NC(=O)C(Cc2ccccc2)NS(=O)(=O)c2ccc3c(c2)CCC(=O)N3)c1 (centres undefined) 0.37%
CCOc1ccccc1NC(=O)C(=O)Nc1ccc2nc3n(c(=O)c2c1)CCCCC3 -1.82%
OCc1cnc(SCc2ccccc2F)n1Cc1ccc(F)cc1 3.01%
O=C(c1ccccc1)N1c2nc(-c3ccco3)nn2C2(CCCCC2)[C@@H]2CCCC[C@@H]21 0.885%
Cc1cc(C)cc(NC(=O)Cc2noc3ccccc23)c1 -1.26%
Cc1cc(C)c(NC(=O)C2CCCN(S(=O)(=O)c3c(C)noc3C)C2)c(C)c1 (centres undefined) -0.151%
Cc1ccccc1OCc1ccc(-c2nc(C#N)c(N3CCN(c4cccc(Cl)c4)CC3)o2)o1 -0.656%
CCCCCCOc1ccc(C2C(=O)N(C3CCCCC3)CC(=O)N2C2CCCCC2)cc1 (centres undefined) 7.9%
CCN(CC)S(=O)(=O)c1ccc(C(=O)NCCSc2c(-c3ccccc3)[nH]c3ccccc23)cc1 0%
CCC(=O)N1CCc2cc(S(=O)(=O)NCCC(=O)Nc3ccc(N(CC)CC)cc3C)ccc21 -19.2%
O=C(c1ccc2c(c1)N(Cc1ccc(F)cc1)C(=O)c1ccccc1S2(=O)=O)N1CCCCC1 0.0372%
NC(=O)c1cc(S(=O)(=O)N2CCN(c3cccc(C(F)(F)F)c3)CC2)cs1 1.52%
O=C(CSc1nc2ccccc2nc1Cc1ccc(Cl)cc1)N1CCN(c2ccccc2)CC1 3.45%
Cc1ccc(-n2ncc(C(=O)NCc3ccco3)c2C2CCN(C(=O)OC(C)(C)C)CC2)cc1C -5.89%
COc1cc(NC(=O)c2cc3cc4ccc(C)cc4nc3o2)cc(OC)c1OC -5.36%
CCc1ccccc1N(C)C(=O)C1CCCN(c2ncnc3c2nc2n3CCCCC2)C1 (centres undefined) -11.8%
Cc1c(C(=O)Nc2cc(F)ccc2F)sc2nc(-c3ccc(F)cc3)cn12 -5.18%
CCc1c(C)c2cc3c(c(C)c2oc1=O)OCN(CCc1ccccc1F)C3 -6.99%
CCOC(=O)c1c(NC(=O)c2ccc(OCC)c(Br)c2)sc2c1CCCC2 -1.51%
Cc1cc2oc(=O)c(CC(=O)NCCc3ccccc3F)c(C)c2c2occ(C(C)(C)C)c12 1.29%
CC(=O)Nc1cc(C(=O)NCc2ccc(F)cc2)ccc1Sc1ccc(F)cc1 6.33%
CCCCN(C(=O)C1CCC(CNS(=O)(=O)c2cccc3nsnc23)CC1)c1ccccc1 (centres undefined) -1.02%
O=c1c2cc3c(cc2nc2sc(Nc4cccc([N+](=O)[O-])c4)nn12)OCO3 11%
CC(=O)Nc1ccc(NC(=O)CN(C)S(=O)(=O)c2ccc3c(c2)CCCC(=O)N3)cc1 6.17%
COc1ccc(CC(=O)NCC(c2cccs2)S(=O)(=O)c2ccc(F)c(C)c2)cc1 (centres undefined) -13.2%
Cc1ccc(C)c(S(=O)(=O)c2nnn3c2nc(N2CCN(C)CC2)c2sccc23)c1 -4.6%
COc1ccccc1C(=O)Nc1nc2n(n1)C(c1ccc(F)cc1)C=C(c1ccc(Cl)cc1)N2 (centres undefined) 1.58%
CCOC(=O)c1cc(S(=O)(=O)NCc2ccc(Cl)cc2)[nH]n1 0.011%
Cc1cccc(CN2CCC(CNC(=O)Cn3ncc4c([nH]c5ccc(C)cc54)c3=O)CC2)c1 1.07%
COc1ccccc1C(=O)N/C(=C\c1cn(S(=O)(=O)N(C)C)c2ccccc12)C(=O)NCCCn1ccnc1 -1.05%
CCc1ccc(CNC(=O)C2CCCN(c3nnc(C)c4c(C)n(-c5ccccc5)nc34)C2)cc1 (centres undefined) -3.26%
Cc1ccccc1CSc1ncc(Cl)c(C(=O)Nc2nc3ccc(F)cc3s2)n1 -3.81%
COc1ccccc1C(=O)Nc1ccc2nc(SCC(=O)N3CCCc4ccccc43)sc2c1 -10.5%
COc1ccc(OC)c(NC(=O)C2CCCN(S(=O)(=O)c3ccc4c(c3)CCCC(=O)N4)C2)c1 (centres undefined) 0%
Cc1cc2n(n1)CCC(=O)N2Cc1ccc(C(=O)Nc2cc(Cl)ccc2C)cc1 0.252%
COc1ccccc1NC(=O)C1=C(C)Nc2nc(SC)nn2C1c1ccccc1Cl (centres undefined) -4.97%
O=S1(=O)c2ccccc2N(Cc2cccc(F)c2)c2ccccc21 -12.9%
COc1ccc(NC(=O)c2ccco2)cc1NC(=O)c1cc(Cl)ccc1OC 2.78%
CSc1ccc(-c2nnn(CC(=O)Nc3sc4c(c3C#N)CCC(C(C)(C)C)C4)n2)cc1 (centres undefined) -3.36%
CCCCOc1ccc(C(C)NC(=O)CN2C(=O)CSc3ccc(S(=O)(=O)N4CCOCC4)cc32)cc1 (centres undefined) -3.71%
CCCN(CCC)C(=O)Cn1c(=O)n(-c2cccc(C)c2)c(=O)c2c1c1cc(OC)ccc1n2C -4.5%
COc1cccc(-c2cc(C(F)(F)F)nc(NCCc3ccc(OC)c(OC)c3)n2)c1 -0.324%
Cc1c(C(=O)OC2CCCCC2)[nH]c2c1C(=O)CC(c1ccc(F)cc1)C2 (centres undefined) -3.11%
CC(C)CC(=O)NCC(c1ccc2c(c1)OCO2)N1CCN(c2ccccc2)CC1 (centres undefined) -1.57%
